Inconclusive means that the source gave no clear call. Such entries were picked first, then a sample of the others. Activity calls are given as the source filed them.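 How the source made its calls: active means viability at or below 30% in both replicate assays; inconclusive means viability at or below 30% in just one of the two assays; inactive means the rest.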
test: HUVEC growth inhibition – cell-based, human, primary screen (AID 575); details: HUVEC proliferation, CellTiter-Glo luminescence, 72 h; at 10 µM; stronger effect = lower value;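 further: 100% = median of untreated cell wells with 0.1% DMSO on each plate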
In short: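 Assay system: primary human umbilical vein endothelial cells / Buffer or medium: endothelial basal medium with 2% FBS plus growth supplements / Compound dosing: one dose, 10 µM final, 0.1% DMSO / Timing: 72 h treatment at 37 °C / Signal: CTG luminescence / Benchmarks: 32 DMSO-only cell-control wells (high), 32 MePR drug-control wells (low) per plate / Plate: collagen-coated 384-well format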

| SMILES | viability |
| --- | --- |
| COCCCNC(=O)c1c(N)n(-c2cccc(S(N)(=O)=O)c2)c2nc3ccccc3nc12 | inconclusive: 46.7% |
| COc1cccc(-c2cc3nc4c(c(N5CCC6(CC5)OCCO6)n3n2)CCCC4)c1 | inconclusive: 38.1% |
| Cc1cc(=O)oc2c1ccc1oc(/C(=N/O)c3ccccc3)c(C)c12 | inconclusive: 34.7% |
| Cc1ccc(C(=O)/C=C/Nc2cccc(O)c2)cc1 | inconclusive: 41.4% |
| Cc1ccc2c(c1)-c1c(cnn1CC(=O)Nc1ccccc1N1CCN(C)CC1)CO2 | inconclusive: 28.9% |
| Cc1cccc(NC(=O)c2cc(NC(=O)c3ccco3)ccc2N2CCCCC2)c1 | inconclusive: 33% |
| Cn1c(NC(=O)c2cccc(Cn3cc(Cl)cn3)c2)nc2ccccc21 | inactive: 72.4% |
| CCn1ncc(C2=NOC(C(=O)NCc3ccccc3)C2)c1C (stereo not given) | inactive: 43.2% |
| O=S(=O)(c1cccc2cnccc12)N1CCCNCC1 | inconclusive: 46.6% |
| CCn1c2ccccc2c2cc(NC(=O)CSc3nnc(C4CC4)n3Cc3ccco3)ccc21 | inactive: 75.5% |
| O=C(Nc1ccc(N2CCOCC2)cc1)Nc1ccc2nc(-c3ccco3)c(-c3ccco3)nc2c1 | active: 16.6% |
| O=C(CCCSc1nc2ccccc2s1)NC1=NCCS1 | inactive: 102% |
| Cc1ccc(Cl)cc1N1CCN(C(=O)c2cn(C)c(=O)c3c2c2ccccc2n3C)CC1 | inconclusive: 29.6% |
| C=C(CC)C(=O)c1ccc(OCC(=O)O)c(Cl)c1Cl | inconclusive: 29.2% |
| Oc1ccc(Nc2nc(-c3ccc(O)cc3)cs2)cc1 | inconclusive: 41.3% |
| COc1ccc(S(=O)(=O)N2CCCC(C(=O)NCc3ccccn3)C2)cc1 (stereo not given) | inactive: 96.8% |
| CCOC(=O)C1=C(N)c2ccccc2CC1C(C)C (stereo not given) | inconclusive: 48.9% |
| CCOc1ccc2nc(NC(=O)C(NS(=O)(=O)c3cccs3)C(C)C)sc2c1 (stereo not given) | inconclusive: 35.2% |
| COc1cccc(-c2nnc3sc(C4CCCCC4)nn23)c1 | inconclusive: 30.6% |
| CN1CCN(S(=O)(=O)c2ccc(NC(=O)Nc3cccc(Cl)c3)cc2)CC1 | active: 4.34% |

| SMILES | viability |
| --- | --- |
| CCCc1cc(-n2ccnc2)n2c(nc3ccccc32)c1C#N | inconclusive: 36.4% |
| CC(C)C[C@H]1C(=O)N2CCC[C@H]2[C@]2(O)O[C@](NC(=O)[C@@H]3C=C4c5cccc6[nH]c(Br)c(c56)CC4N(C)C3)(C(C)C)C(=O)N12 (stereo not given in full) | inconclusive: 25.4% |
| CC(C)CCNC(=O)NC(=O)CSc1nnc(-c2ccccc2F)n1N | inactive: 99.9% |
| CC(=O)N1CN(C2CCCC2)Cc2c1sc1c2CCCC1 | inactive: 103% |
| CCOC(=O)c1[nH]c2ccc(F)cc2c1NC(=O)C(C)N1CCc2cc(OC)c(OC)cc2C1 (stereo not given) | inactive: 57.9% |
| COc1cc2nc(SCC(=O)NC3CC3)n(CCC3=CCCCC3)c(=O)c2cc1OC | inconclusive: 35.7% |
| CC[C@]1(O)C[C@@H]2CN(CCc3c([nH]c4ccccc34)[C@@](C(=O)OC)(c3cc4c(cc3OC)N(C)[C@H]3[C@@](O)(C(=O)OC)[C@H](OC(C)=O)[C@]5(CC)C=CCN6CC[C@]43[C@@H]65)C2)C1 | active: 10.5% |
| CCC(=O)N1CCN(c2nc(-c3ccccc3)c3c(c2C#N)CCCC3)CC1 | inactive: 97.2% |
| COc1ccc(Br)cc1-c1noc(-c2ccccc2)n1 | inconclusive: 48.7% |
| Cc1cc(C)n(-c2ccc3cccc(NS(C)(=O)=O)c3n2)n1 | active: 14.3% |
| CCCc1nnc(NC(=O)CCC(=O)N2CCN(CCOc3ccc(C)cc3)CC2)s1 | inactive: 92% |
| CC(=O)Nc1ccccc1O | inactive: 102% |
| CC(Sc1nnnn1-c1ccccc1)C(=O)Nc1ccc(Cl)cn1 (stereo not given) | inactive: 73.9% |
| CC(=O)c1ccc(Oc2cc(C)nc(-n3nc(C)cc3C)n2)cc1 | inactive: 51.7% |
| CCCOc1ccc(OCCSc2ncccn2)cc1 | inactive: 99.6% |
| Clc1ccc(OCc2nnc(SCCN3CCCCC3)n2Cc2ccco2)cc1 | inconclusive: 46.2% |
| Nc1nonc1C(=O)NCCNCc1cc(Br)ccc1OCc1ccccc1F | inconclusive: 40.7% |
| COc1cc2nc(N3CCN(C(=O)c4ccco4)CC3)nc(N)c2cc1OC | inconclusive: 32.2% |
| Cn1c(-c2ccc(C(C)(C)C)cc2)n[nH]c1=S | inconclusive: 33.7% |
| O=C(CN1CCC(c2nc3ccccc3s2)CC1)NCc1cccs1 | inconclusive: 45.8% |
